Experimental data reported in PubChem BioAssay AID588855 (National Center for Advancing Translational Sciences (NCATS), 2011).
In all, about 410,000 compounds went through this assay and about 5,000 (1.2%) were called active. Inconclusive means that the source gave no clear call. Such entries were picked first, then a sample of the others. Calls follow the shape of the dose curve; as a rule, active = well fitted inhibition curve with a large enough effect; inconclusive = small, poorly fitted or top-dose-only effect; inactive = no such curve, though single readings can be large or run the other way. Where the call is inconclusive, the potency comes from a doubtful curve fit.

Assay: qHTS for Inhibitors of TGF-b; also: nearly all actives have a fitted effect of over 65% in size
Conditions: HepG2 CAGA-GFP TGF-b/SMAD3 reporter, GFP fluorescence, 18 h, TGF-beta stimulated, 500 pg/mL final; series mostly up to 46.1 µM; activity, negative = inhibition: at the top concentration
Procedure, shortened: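 First, reporter cells (HEPG2 CAGA-GFP) rested 2 h at 37 degrees C. Next, compounds were pinned in and TGF-beta added to 500 pg/mL final. After 18 h, GFP was imaged per cell and summed per well.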
% is scaled to controls: 0 for no effect and ±100 for the full control effect; potency is read from the fitted curve at half-maximal effect; tags tell the direction and shape of the fitted curve.

Structure (SMILES)	Potency	activity, negative = inhibition
CN(C)c1ccc(-c2cc(O)c3ncccc3c2)cc1	inconclusive: 2.82 µM [inhibitor, full curve, poor fit]	
O=C(NCC(c1ccc(F)cc1)N1CCOCC1)c1ccc(-c2ccccc2)cc1 (centres undefined)		inactive: 2.25%
CC(C)NC(=O)c1cc(C2CCCCN2S(=O)(=O)c2cccc3cccnc23)on1 (centres undefined)		inactive: 0.115%
COc1ccc(NC(=O)Cc2nnc(SCC(=O)NC3CCCCC3C)n2C)cc1 (centres undefined)		inactive: -16.8%
O=C(c1ccc(Cl)cc1)N1CCC(c2nc(-c3cccs3)no2)CC1	inconclusive: 20 µM [inhibitor, partial curve, poor fit]	
CCCN(CCC)C(=O)C1CCN(c2ccc(S(=O)(=O)N3CCOCC3)cc2[N+](=O)[O-])CC1	inconclusive: 0.355 µM [inhibitor, full curve, poor fit]	
CCCn1nc(C(=O)Oc2ccc3c(C)cc(=O)oc3c2)c2ccccc2c1=O	inconclusive: 5.62 µM [inhibitor, single point]	
O=C(COc1ccccc1)Nc1nnc2n1CCS2		inactive: -3.12%
CSc1nc(N)nc(N(C)C)n1	inconclusive: 14.1 µM [inhibitor, partial curve, poor fit]	
COc1ccc(S(=O)(=O)N2CCN(c3nc(-c4cccs4)nc4ccccc34)CC2)cc1	inconclusive: 3.16 µM [inhibitor, single point]	
COC(=O)CNC(=O)Cn1c(=O)n(Cc2ccc(F)cc2)c(=O)c2sccc21		inactive: -6.32%
S=C(N/N=C1\C2CN3CCN(C2)CC1(c1ccccc1)C3)Nc1ccccc1	inconclusive: 35.5 µM [inhibitor, single point]	
CC(=O)c1ccc(NC(=O)COc2ccccc2-c2nc(C(C)C)no2)cc1		inactive: -26.3%
CCCCC[C@@H]1C=C(C(=O)O)[C@H](c2cccc(C)c2)N1S(=O)(=O)c1ccc(C)cc1	inconclusive: 35.5 µM [inhibitor, single point]	
CON(C)C(=O)CCC1CCCN1C(=O)OC(C)(C)C (centres undefined)		inactive: 12.3%
Cc1c(C(=O)c2ccccc2)c2ccccn2c1CCc1ccccn1	inconclusive: 22.4 µM [inhibitor, single point]	
COC(=O)c1c(C)[nH]c(C=O)c1-c1ccccc1		inactive: 14.6%
CN(C)C(=O)CCc1ccc2c3c([nH]c2c1)[C@]1(CCc2ccccc2)[C@@H](C(=O)N2CCCCC2)C[C@H](CC(=O)NCc2ccco2)C(=O)N1CC3		inactive: 5.06%
CCCC(=O)Nc1ccc(C(=O)Nc2cc(C(F)(F)F)ccc2Cl)cc1	inconclusive: 35.5 µM [inhibitor, single point]	
O=C(NCCCN1CCOCC1)c1sc2cc([N+](=O)[O-])ccc2c1Cl	inconclusive: 0.112 µM [inhibitor, full curve, poor fit]	
COc1ccccc1NC(=O)C1=C(C)Nc2nc(-c3ccco3)nn2C1c1cccc(C)c1 (centres undefined)	inconclusive: 35.5 µM [inhibitor, single point]	
CC(OC(=O)Cn1[nH]c(=O)c2ccccc2c1=O)C(=O)Nc1ccc(F)cc1 (centres undefined)	inconclusive: 28.2 µM [inhibitor, single point]	

Structure (SMILES)	Potency	activity, negative = inhibition
CC1=C(C(=O)c2ccccc2)C(c2ccc(OC(F)F)cc2)NC(=S)N1 (centres undefined)	inconclusive: 11.2 µM [inhibitor, single point]	
O=C(c1cc(COc2ccc(F)cc2F)on1)N1CC[C@@H]2CCCC[C@H]2C1	inconclusive: 25.1 µM [inhibitor, single point]	
CCC(=O)Nc1ccc(C)cc1-c1nc2ccccc2n(CC(=O)c2ccc(C)cc2)c1=O		inactive: -3.35%
CCN1CCN(CCNC(=O)c2ccc(/C=C3/Sc4ccccc4N(Cc4cccc(C)c4)C3=O)cc2)CC1	inconclusive: 11.2 µM [inhibitor, partial curve, poor fit]	
CC(C)NC(=O)Nc1ccc2c(c1)C(=O)N([C@H](C)CO)C[C@H](C)[C@@H](CN(C)C(=O)NC(C)C)O2		inactive: 12.2%
CCOc1cc(/C=C2\CN(C)C/C(=C\c3ccc(O)c(OCC)c3)C2=O)ccc1O	inconclusive: 35.5 µM [inhibitor, single point]	
O=c1[nH]cnc2c1C(c1ccccc1)c1c(nc[nH]c1=O)O2		inactive: 8.12%
Cc1ccc(Nc2nc(-c3sc(N)nc3C)cs2)cc1	inconclusive: 14.1 µM [inhibitor, single point]	
CC(C)(C)OC(=O)N1CCC(c2c(C(=O)NCc3ccco3)cnn2-c2ccc(F)cc2F)CC1	inconclusive: 0.562 µM [inhibitor, full curve, poor fit]	
Cc1ccc(CCNC(=O)c2oc(=O)c3ccccc3c2-c2ccc(C)cc2)cc1	inconclusive: 1.41 µM [inhibitor, partial curve, poor fit]	
CCOC(=O)N1CCC(NC(=O)C2CCCN(Cc3nc(-c4ccc(CC)cc4)oc3C)C2)CC1 (centres undefined)	inconclusive: 11.2 µM [inhibitor, partial curve]	
CC1CCN(S(=O)(=O)c2ccc3c(ccc(=O)n3CC(=O)NCc3ccccc3)c2)CC1	inconclusive: 8.91 µM [inhibitor, partial curve]	
CC(NC(=O)[C@H](C)N1C(=O)N2CCc3c([nH]c4ccccc34)[C@@]2(C)C1=O)c1ccccc1 (some centres undefined)	inconclusive: 10 µM [inhibitor, partial curve]	
Fc1cccc(Cc2c(-c3cccc(Br)c3)nc3ccc(Cl)cn23)c1	inconclusive: 17.8 µM [inhibitor, single point]	
C=C(C)C(=O)Nc1cccc(C2=NOC3(C2)C[C@@H](C(N)=O)N(C(=O)c2cc([N+](=O)[O-])cc([N+](=O)[O-])c2)C3)c1 (some centres undefined)		inactive: 3.39%
Cc1ccc(COn2c(-c3ccc(Cl)cc3Cl)nc3ncccc32)cc1	inconclusive: 22.4 µM [inhibitor, single point]	
CCSc1nc2sc3c(c2c2[n+]1CC(CBr)O2)CCCC3 (centres undefined)		inactive: -20.7%
CC(=O)Nc1cccc(NC(=O)CSc2cn(CC(=O)N3CCCC3)c3ccccc23)c1	inconclusive: 2.24 µM [inhibitor, partial curve, poor fit]	
CCOc1ccc(NC(=S)Nc2cccc3cnccc23)cc1	inconclusive: 5.62 µM [inhibitor, partial curve, poor fit]	
CCOc1ccc(CC(=O)NCCc2sc(-c3cccc(F)c3)nc2C)cc1	inconclusive: 14.1 µM [inhibitor, partial curve, poor fit]	
O=S(=O)(NCc1ccccn1)c1ccc(F)cc1	inconclusive: 1.58 µM [inhibitor, partial curve, poor fit]	
COc1ccccc1CN(C)C(=O)c1cc(-c2cccs2)nc2ccccc12	inconclusive: 35.5 µM [inhibitor, single point]	

Structure (SMILES)	Potency	activity, negative = inhibition
CC(=O)n1cc([C@H]2C=C(C(=O)N3CCN(Cc4ccccc4)CC3)O[C@@H](OCCCCO)C2)c2ccccc21	inconclusive: 15.8 µM [inhibitor, single point]	
C=CCN=C(NC#N)SCC(=O)c1cccc(OC)c1	inconclusive: 35.5 µM [inhibitor, single point]	
CN(C)/C=C/C(=O)c1nnn(C2CCCCC2)c1NC1CCCCC1	inconclusive: 35.5 µM [inhibitor, single point]	
COc1ccccc1NC(=O)C1CCCN(S(=O)(=O)c2ccc3c(c2)CC(C)N3C(C)=O)C1 (centres undefined)		inactive: -21%
CN(C)CCCNc1c2c(nc3ccccc13)CCC2	inconclusive: 17.8 µM [inhibitor, single point]	
CCOc1ccccc1NC(=O)COC(=O)C(CC(C)C)N1C(=O)C2CC=CCC2C1=O (centres undefined)	inconclusive: 35.5 µM [inhibitor, single point]	
COc1ccc(CC(NC(C)=O)C(=O)NC2CCN(c3c(Cc4ccccc4)c(C)nc4ncnn34)CC2)c(OC)c1 (centres undefined)	inconclusive: 20 µM [inhibitor, single point]	
COc1ccc(C)cc1NC(=O)c1cc(S(=O)(=O)N2CCC3(CC2)OCCO3)ccc1F		inactive: -0.24%
CCCNC(=O)c1ccccc1NC(=O)CN(c1ccccc1OCC)S(C)(=O)=O	inconclusive: 11.2 µM [inhibitor, partial curve, poor fit]	
O=C(O)c1ccc2c(c1)C(=O)N(N1C(=O)c3ccccc3C1=O)C2=O		inactive: 2.73%
CC1(C)Cc2c(sc3ncnc(NN)c23)CO1	inconclusive: 17.8 µM [inhibitor, single point]	
O=C(CSc1nnc(SCc2ccc(Cl)cc2)s1)N/N=C/c1ccccc1Cl	inconclusive: 22.4 µM [inhibitor, single point]	
Cc1ccc(-c2nc(N)sc2-c2ccc(C)cc2)cc1	inconclusive: 8.91 µM [inhibitor, partial curve, poor fit]	
COc1ccc(-c2cc(C(F)(F)F)nc(SCC(=O)N3CC(C)OC(C)C3)n2)cc1OC (centres undefined)		inactive: 6.56%
CNC(=S)N(C)[C@H]1c2c(ccc3ccccc23)OC[C@H]1CO		inactive: 5.85%
CCC(NC(=O)CCC(=O)N1CCN(S(=O)(=O)c2ccc(C)cc2)CC1)c1ccc(C)cc1 (centres undefined)	inconclusive: 15.8 µM [inhibitor, single point]	
COc1cc2cc(C(c3nnnn3C3CCCCC3)N(C)C3CCCCC3)c(=O)[nH]c2cc1OC (centres undefined)	inconclusive: 14.1 µM [inhibitor, partial curve, poor fit]	
CCc1cccc(C)c1NC(=O)c1cc(S(=O)(=O)N(C)Cc2ccccc2)ccc1F	inconclusive: 0.794 µM [inhibitor, full curve, poor fit]	
Cc1ccc(-n2ncc3c(N4CCCCC4)ncnc32)cc1Cl		inactive: -2.11%
OCC1(CCOc2ccccc2)CCN(CC2=Cc3cc(Cl)ccc3OC2)CC1	inconclusive: 25.1 µM [inhibitor, single point]	
